The campaign covered roughly 420,000 compounds. About 64,000 (15%) were called active. Inconclusive results, whose numbers are uncertain, are shown with a selection of clear calls. The call rests on the fitted dose curve; in most records, active means well fitted inhibition curve with a large enough effect; inconclusive means small, poorly fitted or top-dose-only effect; inactive means flat fitted curve, though single readings scatter. Potencies of inconclusive entries are left out as doubtful fits.
assay: qHTS for Inhibitors of human tyrosyl-DNA phosphodiesterase 1 (TDP1): qHTS in cells in absence of CPT; settings: DT40 Tdp1-/- hTDP1 cells, no CPT, ATP luminescence, 48 h; activity change, negative = growth inhibition: at 46.2 µM (top of the series) unless noted; further: nearly all actives have a fitted effect of over 55% in size
Procedure, shortened: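 Readout: luminescence from CellTiter-Glo after 30 min in the dark at RT. Cells: DT40 Tdp1-/- with stable hTDP1, 400/well. Exposure: compounds alone, ≥48 hr, 37 °C.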
On the % scale 0 is the no-effect control and ±100 the full control effect; potency means the concentration at half of the fitted maximal effect; tags describe the fitted curve by direction and shape.

| Compound | Potency | activity change, negative = growth inhibition |
| --- | --- | --- |
| C=CCn1c(=N)c(C(=O)NCCCOC)cc2c(=O)n3cccc(C)c3nc21 | inconclusive [inhibitor, single point] | – |
| O=C(Cc1cccc2ccccc12)NCC(=O)Nc1ccccc1F | inactive | – |
| Cc1cc(C)n(-c2ccc(C(=O)OCC(=O)Nc3ccc(Cl)c(S(=O)(=O)N(C)C)c3)cc2)n1 | inactive | – |
| CC(=O)c1cc2c(cc1NC(=O)CCc1c(C)nc3ncnn3c1C)OCO2 | inactive | – |
| CCN(CC)CCN(C(=O)c1cc2ccccc2cc1OC)c1nc2ccc(OC)cc2s1 | active: 18.4 µM | – |
| COc1cc(/C=N/Nc2snc(SC)c2C#N)cc(OC)c1OC | active: 1.84 µM | – |
| COc1ccc(-c2cn3c4c(sc3n2)CCCC4)cc1 | inactive | – |
| CCOC(=O)C(CC)n1nc(C)n2c(cc3occc32)c1=O (stereo unspecified) | inactive | – |
| O=c1[nH]c(CSc2ccccc2)nc2c1oc1ccccc12 | inconclusive [inhibitor, single point] | – |
| CCOc1ccc2nc3ccc4[nH]onc4c3c2c1 | inconclusive [inhibitor, single point] | – |
| O=C(Cc1ccccc1)N1CCN(c2ccccc2F)CC1 | inactive | – |
| COc1cccc(-n2ccnc2SCC(=O)Nc2ccccc2F)c1 | inactive | – |
| CCOC(=O)[C@]12CCCC=C1N(Cc1ccccc1)C(=O)[C@H](CC(=O)NCC13CC4CC(CC(C4)C1)C3)C2 | inconclusive [inhibitor, single point] | – |
| CN(C)CCCNc1nc2cc(-c3ccc4c(ccn4C)c3)sc2c(=O)n1C | inconclusive [inhibitor, single point] | – |
| Cc1c(NC(=O)c2cnn3c2NC(c2ccco2)CC3C(F)(F)F)c(=O)n(-c2ccccc2)n1C (stereo unspecified) | inconclusive [inhibitor, single point] | – |
| Cc1ccc(O)c(C(=O)c2cnc3onc(-c4ccc(F)cc4)c3c2)c1 | inconclusive [inhibitor, single point] | – |
| Cc1ccc(CNC(=O)CCc2c(C)nn(-c3ccc(N4CCCCC4)nn3)c2C)cc1 | inconclusive [inhibitor, single point] | – |
| CCC(=O)N1CCN(c2nc(-c3ccc(Cl)cc3)cs2)CC1 | active: 23.1 µM | – |
| O=C(CNC(=O)N1CC(=O)Nc2ccccc21)NCCCc1ccccc1 | inactive | – |
| Cc1ccc(-c2nc3ccccn3c2Nc2ccc3c(c2)OCO3)cc1 | inconclusive [inhibitor, single point] | – |
| CCCCN(C(=O)CSCC(=O)Nc1ccc(C)cc1)c1c(N)n(Cc2ccccc2)c(=O)[nH]c1=O | inactive | – |
| Cc1csc2nc(-c3cccc(NC(=O)c4ccccc4Cl)c3)cn12 | active: 18.4 µM | – |
| COc1ccc(Cc2c(-c3ccc(Cl)cc3)nc3cc(C)c(Br)c(C)n23)c(C)c1 | inconclusive [inhibitor, single point] | – |

| Compound | Potency | activity change, negative = growth inhibition |
| --- | --- | --- |
| O=C(COc1ccccc1C(=O)Nc1ccccc1)NC1CCCCC1 | inconclusive [inhibitor, single point] | – |
| COc1cccc(C(=O)/C=C/Nc2cc(C)ccc2O)c1 | inconclusive [inhibitor, single point] | – |
| O=C(CCc1ccccc1)N1CCCC(Nc2ccc(F)cc2)C1 (stereo unspecified) | inactive | – |
| COc1ccc(C(=O)CSc2nc(SC)ns2)cc1OC | inconclusive [inhibitor, full curve, poor fit] | – |
| Cc1cc(C)nc(N2CCCC(C(=O)NCc3cccc(C(F)(F)F)c3)C2)n1 (stereo unspecified) | inconclusive [inhibitor, partial curve] | – |
| CN(C)/C=N/c1ncc(C(=O)c2ccc(-c3ccccc3)cc2)s1 | inconclusive [inhibitor, partial curve, poor fit] | – |
| CSc1ccccc1NC(=O)C1=CC(c2ccc(C)cc2)=NS(=O)(=O)N1C | inconclusive [inhibitor, single point] | – |
| CC(=O)O[C@@]1(C(C)=O)CCC2C3C=C(C)C4=CC(=O)CCC4(C)C3CCC21C (stereo partly specified) | inactive | – |
| O=C(NC1CCCCCC1)C1CCN(C(=O)N2CCOc3ccccc32)CC1 | inconclusive [inhibitor, single point] | – |
| Cc1cc(OCC(=O)Nc2ccc(CCO)cc2)c2c(C)c(C)c(=O)oc2c1 | inconclusive [inhibitor, single point] | – |
| O=C(COC(=O)c1ccccc1SCC(=O)N1CCCC1)Nc1ccc(OC(F)F)cc1 | – | inconclusive: -34.6% [inhibitor] |
| CCOC(=O)C1=C(C)N=c2s/c(=C/c3cccc([N+](=O)[O-])c3O)c(=O)n2C1c1ccc(OC)cc1OC (stereo unspecified) | inconclusive [inhibitor, single point] | – |
| CC(OC(=O)c1n[nH]c2ccccc12)C(=O)Nc1ccccc1[N+](=O)[O-] (stereo unspecified) | active: 14.6 µM | – |
| Cc1nc(C)c(-c2ccc(SCC(=O)Nc3ccc(F)c(F)c3)nn2)s1 | active: 9.2 µM | – |
| COc1cc(OC)c(N(C)C(=O)Cn2ncc3c([nH]c4ccccc43)c2=O)cc1Cl | inconclusive [inhibitor, single point] | – |
| CN(Cc1ccccc1)C(=O)C1CCN(S(=O)(=O)Cc2ccccc2)CC1 | inactive | – |
| O=C(Nc1ccnc(-c2ccncc2)n1)c1ccc(Cl)cc1 | inactive | – |
| CC1(C)CCCN(C(=O)c2coc(=O)c(Br)c2)C1 | active: 0.82 µM | – |
| Cc1cc(C)cc(-n2c(O)c(C=NC3CCS(=O)(=O)C3)c3ccccc3c2=O)c1 (stereo unspecified) | inconclusive [inhibitor, single point] | – |
| CCN(C(=O)/C=C/c1ccccc1)C1CCCCC1 | inconclusive [inhibitor, single point] | – |
| Cc1ccccc1S(=O)(=O)NC(=NCc1ccc(F)cc1)c1ccccc1 | inconclusive [inhibitor, single point] | – |
| COc1ccccc1C(=O)NCCC(=O)NCCC12CC3CC(CC(C3)C1)C2 | inconclusive [inhibitor, single point] | – |
| Cc1ccc(NC(=O)c2cc(S(=O)(=O)N3CCCC(C)C3)cn2C)c(Br)c1 (stereo unspecified) | inconclusive [inhibitor, single point] | – |

— PubChem BioAssay AID686978 (National Center for Advancing Translational Sciences (NCATS), 2013)
